# Out of some 360,000 compounds screened, about 740 (0.21%) were called active. Inconclusive results, whose numbers are uncertain, are shown with a selection of clear calls. Calls come from the whole dose curve; as a rule, active = well fitted inhibition curve with a large enough effect; inconclusive = small, poorly fitted or top-dose-only effect; inactive = no such curve, though single readings can be large or run the other way. No potency is given beside an inconclusive call; the fits are too rough.
# Test system: Plasmodium falciparum AMA1 (3D7) - RON2 peptide interaction
# Experiment: qHTS for Inhibitors of AMA1-RON; Towards Development of Antimalarial Drug Lead: Primary Screen; note: nearly all actives have a fitted effect of over 45% in size;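 for activity change, negative = inhibition: 0% = vehicle wells and -100% = peptide control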
# Details: AlphaScreen AMA1-biotinylated RON2 peptide binding; activity change, negative = inhibition: at 58.2 µM (top of the series) unless noted
# How it was run: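 AMA1 (3D7) with his tag at 25 nM final met compounds first, then biotinylated RON2 peptide at 25 nM; detection used donor plus acceptor beads, 10 µg/mL apiece, read by AlphaScreen after 30 min at room temperature.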
# Potency is the fitted concentration of half-maximal effect; tags give direction and shape of the fitted curve.
Structure (SMILES),Potency,"activity change, negative = inhibition"
COc1cccc(OC)c1OCc1cc(C2C3CCCC=C3C(C#N)=C(N)C2(C#N)C#N)c(C)cc1C (configuration not stated),inactive,–
CCCCn1c(N)c(N(CCC(C)C)C(=O)C2CC(=O)N(c3cccc(SC)c3)C2)c(=O)[nH]c1=O (configuration not stated),"inconclusive [inhibitor, single point]",–
C[C@@H]1CN([C@H](C)CO)C(=O)CCCn2cc(nn2)CO[C@H]1CN(C)C(=O)c1ccc2ccn(C)c2c1,inactive,–
CC(=O)C1=C(c2ccccc2)NC(=O)NC1c1ccccc1 (configuration not stated),inactive,–
O=C(NCc1nnc(SCc2ccccc2)n1-c1ccc(F)cc1)C12CC3CC(CC(C3)C1)C2,inactive,–
CC(Oc1ccccc1)c1ccnc2nc(N3CCOCC3)nn12 (configuration not stated),"inconclusive [inhibitor, single point]",–
CN(C)[C@@H]1CCC[C@H]1OC(=O)C(c1ccccc1)c1ccccc1,"inconclusive [inhibitor, partial curve]",–
COc1cc(C(=O)OC2CCN(C)CC2)cc(OC)c1OC,"inconclusive [inhibitor, single point]",–
COc1ccc(-c2csc(N(CCCN(C)C)C(=O)c3ccc(C(C)(C)C)cc3)n2)cc1,"inconclusive [inhibitor, single point]",–
O=C1C(=Cc2ccco2)CCC1=Cc1ccco1,"inconclusive [inhibitor, partial curve]",–
CC(C)OC(=O)c1cc2ccccc2oc1=O,inactive,–
CN1CCN(c2ccc(CNC(=O)C3Cc4c(-c5ccccc5Oc5ccccc5)ccnc4O3)cc2)CC1 (configuration not stated),"inconclusive [inhibitor, partial curve]",–
O=C1NC(=S)SC1=C1CCCC1,"inconclusive [inhibitor, single point]",–
CCOC(=O)c1cnc2ccc(OC)cc2c1Nc1ccc2c(c1)OCCO2,"inconclusive [inhibitor, partial curve]",–
CCS(=O)(=O)CCSP(=O)(OC)OC,"inconclusive [inhibitor, full curve, poor fit]",–
O=[N+]([O-])c1ccc(N2CCCC(C(F)(F)F)C2)c2ccncc12 (configuration not stated),"inconclusive [inhibitor, partial curve]",–
O=C(NCCOc1nc(N2CCCCC2)nc(N2CCCCC2)n1)Nc1ccccc1,"inconclusive [inhibitor, full curve]",–
Oc1ccc(N2CCN(c3ncnc4sc(-c5ccccc5)cc34)CC2)cc1,"inconclusive [inhibitor, partial curve]",–
C/C=C/c1ccc(OCC(=O)Nc2ccncc2)c(OC)c1,inactive,–
Cc1cc(/C=C2/C(=O)NC(=O)N(Cc3ccco3)C2=O)c(C)n1-c1ccc(C(=O)O)cc1,"inconclusive [inhibitor, partial curve]",–
CC1=Nc2ccc(C)cc2/C1=C/c1c(N)n2oc(C)cc2nc1=O,"inconclusive [inhibitor, partial curve]",–
O=C1c2ccccc2C(=O)c2c(Nc3ccc(CCO)cc3)ccc(O)c21,active: 8.91 µM,–
COC(CN(C)C(=O)c1ccc2c(c1)NC(=O)c1ccccc1S2)OC,inactive,–
Cc1ccc(OC/C(=N\O)C(C)(C)C)c([N+](=O)[O-])c1,inactive,–

Structure (SMILES),Potency,"activity change, negative = inhibition"
CC(=O)Nc1ccc(C=NNC(=O)C2CC2)cc1,"inconclusive [inhibitor, partial curve]",–
CCn1nc(C(=O)Nc2ccccc2N2CCCC2)c2ccccc2c1=O,"inconclusive [inhibitor, partial curve]",–
CCSc1nnc(-c2cccnc2)n1-c1ccc(C)c(Cl)c1,inactive,–
Cc1ccc(NC(=S)c2nc3ccccc3[nH]2)c(C)c1,–,inactive: 35.4% [at 11.6 µM]
COc1ccc(/C=C/C(=O)Nc2ccc(OC)nc2)cc1,"inconclusive [inhibitor, single point]",–
COc1ccc(N2CCC(CNC(=S)Nc3cccc(C)c3)C2)cc1 (configuration not stated),"inconclusive [inhibitor, single point]",–
Cc1ccc(-c2nnc(N3CCN(c4ccccn4)CC3)c3ccccc23)cc1,"inconclusive [inhibitor, partial curve]",–
CCOc1cc(/C=N/Nc2cccc(C(=O)O)c2)ccc1OC(=O)c1ccccc1,"inconclusive [inhibitor, single point]",–
Cc1ccc(NC(=O)COC(=O)c2ccccc2-c2nc3ccccc3s2)c(C)c1,inactive,–
COC(=O)c1cc(OCC(=O)NC2CCCc3ccccc32)cc(C(=O)OC)c1 (configuration not stated),"inconclusive [inhibitor, full curve, poor fit]",–
Cc1ccc(Nc2nc(-c3ccccc3)c(CC(=O)O)s2)cc1,inactive,–
Cc1ccc(-c2noc(CSc3nnnn3C3CCCCC3)n2)cc1,inactive,–
CN(C)c1ccc(S(=O)(=O)NCC(=O)OCC(=O)Nc2cc(Cl)cc(Cl)c2)cc1[N+](=O)[O-],"inconclusive [inhibitor, partial curve]",–
C#CCN(Cc1ccccc1)S(=O)(=O)C=C,inactive,–
CCCCCOc1ccc(NC(=O)CSc2cccc3cccnc23)cc1,inactive,–
Cc1ccc(-c2nnc(Nc3ccc(O)cc3)c3ccccc23)cc1S(=O)(=O)NCCO,inactive,–
Nc1nc(SCC(=O)NCC2CCCO2)[nH]c(=O)c1NC(=O)c1ccc(F)c(F)c1 (configuration not stated),inactive,–
CCCCCCn1c(O)c(C=NC2CCCCC2N)c(=O)[nH]c1=O (configuration not stated),inactive,–
COc1ccccc1-n1cnc2cc(NC(=O)c3ccco3)ccc21,inactive,–
Cn1c(N=Nc2ccc(N3CCOCC3)cc2)[n+](C)c2ccccc21,"inconclusive [inhibitor, single point]",–
COCc1cc(C)nc(SCC(=O)Nc2ccc(C)c(C)c2)c1C#N,inactive,–
COc1cc(-c2noc(CCCC(=O)NCc3ccco3)n2)cc(OC)c1OC,"inconclusive [inhibitor, partial curve]",–
COc1cc2c(cc1N)-c1ccc(N)cc1C2=O,"inconclusive [inhibitor, partial curve]",–

# Reference: PubChem BioAssay AID720542 (National Center for Advancing Translational Sciences (NCATS), 2013)
